Counter-ions that a name gives are not always drawn. The list shows a part of the results. The data scatter; read single values as rough.
Experiments:
Experiment in all cases: ALDHbr (CSC) cell proportion score relative to DMSO vehicle (ratio to DMSO); breast (SUM159) / gastric (MKN45) / pancreatic (PANC1) / colon cancer lines; ALDHbr cells have high ALDH activity and are rich in cancer stem cells (CSC); higher = more CSC (ALDHbr) cells remaining
Conditions in all cases: 10 µM; 72 h
MKN45 = system: MKN45
PANC1 = system: PANC1
SUM159 = system: SUM159
T84 = system: T84
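Also: High-content imaging of ALDEFLUOR-stained cells with Hoechst-labelled nuclei in 384-well plates, triplicate wells, scored as Z-score against 0.1% DMSO vehicle, negative meaning fewer ALDHbr cells.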

Compound | ALDHbr (MKN45) | ALDHbr (PANC1) | ALDHbr (SUM159) | ALDHbr (T84)
Oc1ccc(C2CNCCc3c2cc(O)c(O)c3Cl)cc1 (stereo not given) [Fenoldopam] | 1.01 | 0.879 | 1.61 | 1.03
CCN1CCC[C@H]1CNC(=O)c1c(O)c(Cl)cc(Cl)c1OC [Raclopride] | 1.15 | 0.885 | 1.29 | 0.908
Nc1nc2c(ncn2COCCO)c(=O)[nH]1 [Acyclovir] | 1 | 0.946 | 1.07 | 0.809
CCN(CC)CCOCCOC(=O)C1(c2ccccc2)CCCC1 [Carbetapentane citrate] | 0.843 | 0.91 | 1.12 | 1.04
O=C(O)Cc1sc(-c2ccccc2)nc1-c1ccc(Cl)cc1 [Fentiazac] | 1.18 | 1.02 | 0.951 | 0.786
OCc1cc(C(O)CNCCCCCCOCCCCc2ccccc2)ccc1O (stereo not given) [Salmeterol] | 1.03 | 1.05 | 1.88 | 0.873
CCN1CCN(C(=O)N[C@@H](C(=O)N[C@@H]2C(=O)N3[C@@H]2SC(C)(C)[C@@H]3C(=O)O)c2ccccc2)C(=O)C1=O [Piperacillin sodium salt] | 0.968 | 0.877 | 1.23 | 0.906
CN(C)CCC(c1ccccc1)c1ccccn1 (stereo not given) [Pheniramine maleate] | 1.02 | 0.954 | 1.05 | 0.817
CC[C@@H]([C@H](C)O)n1ncn(-c2ccc(N3CCN(c4ccc(OC[C@@H]5CO[C@@](Cn6cncn6)(c6ccc(F)cc6F)C5)cc4)CC3)cc2)c1=O [Posaconazole] | 0.11 | 0.989 | 0.482 | 0.659
NC(=O)OCC(COC(N)=O)c1ccccc1 [Felbamate] | 1.1 | 1 | 1.07 | 1.04
